Results reported in the RNAGym collection of RNA variant scans (doi:10.1093/nar/gkz1192).
Read counts are not given, so values of variants with three or more changes are uncertain.

B1: CPEB3 Ribozyme (parent)
chain: UAACAGGGGGCCACAGCAGAAGCGUUCACGUCGCAGCCCCUGUCAGAUUCUGGUGAAUCUGCGAAUUCUGCUGUAUAUCUC

Variants of: B1
Assay: self-cleavage, relative activity (ratio to wild type); higher = more cleavage; in vitro, sequencing
How it was run: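 CPEB3 self-cleaving ribozyme mutant libraries were made by rounds of error-prone PCR, barcoded, and transcribed in vitro with T7 RNA polymerase for 5 hours at 37°C. Cleavage occurred during transcription and a 15 min DNase I step before EDTA stop. RNAs were reverse transcribed with template switching and Illumina-sequenced, with DNA sequencing mapping barcodes to variants. Relative activity is the variant's cleaved/total read fraction divided by wild type's (minimum 5 reads), averaged across three batches.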
With A45U U49C U54A the self-cleavage was 0.04. Work on A45U U51A G52A C62A yielded a self-cleavage of 0.38. A45U U51A U54C A56G A65G U78C showed a self-cleavage of 0.07. A45U U51C U72C gave a self-cleavage of 0.53. Variant A45U U51C U76C has a self-cleavage of 0.31. A45U U51C U80C showed a self-cleavage of 0.52. A45U U51G U58C showed a self-cleavage of 0.16. A45U U54A A64G U67C U80C gave a self-cleavage of 0.23. With A45U U54C G55U the self-cleavage was 0.15. A45U U58A U69A showed a self-cleavage of 0.07. A45U U58C C59G U78C gave a self-cleavage of 0.14. Work on A45U U60A A64U U76A yielded a self-cleavage of 0.3. A45U U60A U80C gave a self-cleavage of 1.13. For A45U U60C U67C, the self-cleavage was 0.11. For A45U U66C A75G, the self-cleavage was 0.15. A45U U67A U80A showed a self-cleavage of 0.29. With A45U U69C U72C the self-cleavage was 0.23. In the case of G46A A47G U54C A64U, the self-cleavage is reported as 0.21. For G46A A56U A75G, the self-cleavage was 0.01. Variant G46A A57G A75U U78C has a self-cleavage of 0.13. For G46C A57G A75U U78C, the self-cleavage was 0.07. Work on G46C U49A U60A U76A yielded a self-cleavage of 0.14. G46U A64U U80A gave a self-cleavage of 0.41. In the case of G46U U66A A77G, the self-cleavage is reported as 0.11. A47C G55A U72C gave a self-cleavage of 0.16. A47G A56G G63A C79A U80C gave a self-cleavage of 1.07. A47G A56G U60C U80A showed a self-cleavage of 0.54. Work on A47G A56G U69C yielded a self-cleavage of 0.46. With A47G A56G U72C the self-cleavage was 1.03. For A47G A56U A64G U78C, the self-cleavage was 0.21. For A47G A56U A64G U80C, the self-cleavage was 0.25. Work on A47G A56U U76C A77U yielded a self-cleavage of 0.36. With A47G A57G A64G U76C the self-cleavage was 0.49. A47G A57G A64G U78C gave a self-cleavage of 0.37. Work on A47G A57U U66C C81A yielded a self-cleavage of 0.2. Variant A47G A64U A75G has a self-cleavage of 0.29. A47G C50A U58C A64C C81U gave a self-cleavage of 0.16. A47G C68G G73A showed a self-cleavage of 0.92. In the case of A47G C68U U78C, the self-cleavage is reported as 1.03. Work on A47G C79A U80C yielded a self-cleavage of 1.25. Variant A47G G52U U72A has a self-cleavage of 0.99. A47G G63A A64G A65U U72A gave a self-cleavage of 0.32. For A47G U48A U78A, the self-cleavage was 0.41. In the case of A47G U48C A75U, the self-cleavage is reported as 0.27. In the case of A47G U49A U51A, the self-cleavage is reported as 0.16. Variant A47G U49C U67A has a self-cleavage of 0.1. With A47G U49C U69A the self-cleavage was 0.22. A47G U51A A56G U60A showed a self-cleavage of 0.26. For A47G U51C A64G A65U U67C U76A, the self-cleavage was 0.22. A47G U51C A65G U69C U76C showed a self-cleavage of 0.38. In the case of A47G U51C C62U U72C, the self-cleavage is reported as 0.12. With A47G U51C G52U the self-cleavage was 1.18. A47G U54C A77G showed a self-cleavage of 1.01. A47G U58C A75G gave a self-cleavage of 1.03. For A47G U60A U67C U78C, the self-cleavage was 0.32. Variant A47G U60C A64U U66C has a self-cleavage of 0.11. A47G U60C U72G showed a self-cleavage of 0.37. With A47G U60G U72C the self-cleavage was 0.24. Variant A47G U66A U80A has a self-cleavage of 0.34. A47G U67A U69C gave a self-cleavage of 0.29. Variant A47G U67C C71G has a self-cleavage of 0.45. With A47G U72A U78C the self-cleavage was 0.28. Variant A47U A56G G63A A64U U66C A77G U78A has a self-cleavage of 0.09. Work on A47U A57G U80C yielded a self-cleavage of 0.19. Variant A47U A77G U78C has a self-cleavage of 0.26. In the case of A47U C62U U66C C68U, the self-cleavage is reported as 0.07. With A47U C62U U69C the self-cleavage was 0.25. Variant A47U C62U U69C U72G has a self-cleavage of 0.08. A47U G52A U69A gave a self-cleavage of 0.15. With A47U U48A U72C the self-cleavage was 0.35. With A47U U49A A75G the self-cleavage was 0.53. With A47U U49C A64G the self-cleavage was 0.11. Work on A47U U49C U72G U78C yielded a self-cleavage of 0.12. Work on A47U U51A U69A yielded a self-cleavage of 0.13. In the case of A47U U51C A57G U69C, the self-cleavage is reported as 0.14. Work on A47U U51C U60C U67C yielded a self-cleavage of 0.1. With A47U U54C A65G the self-cleavage was 0.08. For U48A A56U U66C, the self-cleavage was 0.33. For U48A G70C U76A, the self-cleavage was 0.1. U48A U49C U72A showed a self-cleavage of 0.17. For U48A U51C U72C, the self-cleavage was 0.21. Work on U48A U54C U78C C79U yielded a self-cleavage of 0.45. With U48A U58C C62U U72C the self-cleavage was 0.07. Work on U48A U66C U80C yielded a self-cleavage of 0.15.
